Assay results as given in PubChem BioAssay AID360 (National Center for Advancing Translational Sciences (NCATS), 2006).
Hit rate of the full screen: of about 48,000 compounds, about 550 (1.1%) were called active. About 4% were inconclusive and are not listed. Rule as the data show it: active = potency below about 15 µM; inconclusive = mostly about 16 µM to 33 µM; inactive = weaker than that. The list shows a part of the results.

Target: Lysosomal acid glucosylceramidase (Homo sapiens) (UniProt P04062)
Experiment: Glucocerebrosidase;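 also: the screen sought inhibitors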
Settings: purified enzyme, resorufin glucoside fluorescence (screen aimed at inhibitors), 20 min; series mostly up to 77 µM
How it was run: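 Normal human glucocerebrosidase (0.2 nM final) was assayed with resorufin β-D-glucopyranoside (30 uM final) in 50mM citric acid/KH2PO4, 10mM sodium taurocholate, 0.01% tween-20, pH 5.9. Compounds were titrated; fluorescence (Ex 548, Em 600) read after 20 min at RT.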
Potency is read from the fitted curve at half-maximal effect.

Sequence of UniProt P04062 (P04062 whole entry, looked up): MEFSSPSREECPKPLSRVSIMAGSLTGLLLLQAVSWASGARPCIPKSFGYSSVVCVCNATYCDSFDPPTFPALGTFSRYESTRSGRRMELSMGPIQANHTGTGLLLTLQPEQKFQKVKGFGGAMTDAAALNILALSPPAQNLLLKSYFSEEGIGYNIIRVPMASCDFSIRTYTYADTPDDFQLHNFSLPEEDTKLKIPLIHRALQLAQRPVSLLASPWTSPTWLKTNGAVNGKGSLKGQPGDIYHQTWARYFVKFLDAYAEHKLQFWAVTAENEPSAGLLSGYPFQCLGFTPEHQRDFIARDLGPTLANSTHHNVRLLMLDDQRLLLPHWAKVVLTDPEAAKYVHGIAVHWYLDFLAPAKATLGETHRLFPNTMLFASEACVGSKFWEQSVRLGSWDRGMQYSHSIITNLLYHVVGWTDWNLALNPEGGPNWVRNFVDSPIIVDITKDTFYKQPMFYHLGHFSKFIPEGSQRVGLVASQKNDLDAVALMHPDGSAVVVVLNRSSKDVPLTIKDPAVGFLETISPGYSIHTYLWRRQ

Potency, inactive:
COC(=O)CSc1nnc(-c2ccc(S(=O)(=O)NCc3cccs3)cc2)o1 > 76.9 µM
Cc1ccccc1Cn1nc(C)c(NC(=O)c2cc(-c3cccs3)on2)c1C > 76.9 µM
Cc1[nH]c2ccc(CNS(=O)(=O)c3ccc(S(=O)(=O)N4CCOCC4)cc3)cc2c1C > 76.9 µM
CCOC(=O)/C=C1\SCC(=O)N1CC(=O)c1ccc[nH]1 > 76.9 µM
O=C(CSc1nc2ccccc2o1)Nc1ccc(N2CCOCC2)c(Cl)c1 > 76.9 µM
c1ccc2sc(N3CCN(Cc4nnnn4CC4CCCO4)CC3)nc2c1 (stereo not given) > 76.9 µM
COc1ccc(-c2nc(C)sc2CC(=O)O)cc1 > 76.9 µM
Cn1c(=O)c2c(nc(NCc3ccccc3)n2CC(=O)NCc2ccccc2)n(C)c1=O > 76.9 µM
CCOC(=O)Cc1c[nH]c2ccccc12 > 76.9 µM
O=C(O)c1cn(-c2ccccc2)nc1-c1ccncc1 > 76.9 µM
Cc1cc(C)n(C(=O)c2ccncc2)n1 > 76.9 µM
CC(C)[C@H](NC(=O)[C@@H]1CSCN1C(=O)OC(C)(C)C)C(=O)NCC1CCC(C(=O)O)CC1 (stereo not given in full) > 76.9 µM
Cc1ccc(-c2nnc(N3CCN(c4ccccn4)CC3)c3ccccc23)cc1 > 76.9 µM
COc1cc2c(cc1OC)C(COc1ccc3c(C)cc(=O)oc3c1)N(C(=O)c1ccco1)CC2 (stereo not given) > 76.9 µM
COc1ccc(OC)c(-c2nnc(SCC(=O)N3CCOCC3)o2)c1 > 76.9 µM
COc1ccccc1-n1nnnc1SCC(=O)Nc1cc(C)on1 > 76.9 µM
O=C(C1CCCO1)N1CCN(Cc2nc3ccccc3c(=O)[nH]2)CC1 (stereo not given) > 76.9 µM
CC(C)(O)C#CC#CCN1CCOCC1 > 76.9 µM
Cc1cc2c(ccc3[nH]onc32)n1 > 76.9 µM
COC(=O)c1nnn(Cc2ccccc2)c1N > 76.9 µM
c1ccc(OCCCc2nc(-c3cccnc3)no2)cc1 > 15.4 µM
CC1C(=O)C(C)C(c2ccco2)NC1c1ccco1 (stereo not given) > 76.9 µM
C=CCNC(=O)c1sc(=S)n(-c2ccc(C(=O)OCC)cc2)c1N > 76.9 µM
CCOC(=O)c1oc2ccccc2c1NC(=O)c1ccc(S(=O)(=O)N(C)C)cc1 > 76.9 µM
COc1ccc(C(=O)NCC(=O)OCC(=O)NC(=O)NC2CCCCC2)cc1OC > 76.9 µM
